# Measured values reported in paper PMC4336329 (PLoS ONE, 2015).
# About 2,200 (0.71%) of roughly 310,000 compounds showed an effect of 50% or more. Effects have a minus sign here. The list shows a part of the results.
# Molecular target: human ether-à-go-go-related gene (hERG) potassium channel (human, UniProt Q12809)
# Experiment: primary screen, population patch clamp on CHO cells stably expressing hERG
# Sequence of human ether-à-go-go-related gene (hERG) potassium channel (Q12809 whole entry, looked up): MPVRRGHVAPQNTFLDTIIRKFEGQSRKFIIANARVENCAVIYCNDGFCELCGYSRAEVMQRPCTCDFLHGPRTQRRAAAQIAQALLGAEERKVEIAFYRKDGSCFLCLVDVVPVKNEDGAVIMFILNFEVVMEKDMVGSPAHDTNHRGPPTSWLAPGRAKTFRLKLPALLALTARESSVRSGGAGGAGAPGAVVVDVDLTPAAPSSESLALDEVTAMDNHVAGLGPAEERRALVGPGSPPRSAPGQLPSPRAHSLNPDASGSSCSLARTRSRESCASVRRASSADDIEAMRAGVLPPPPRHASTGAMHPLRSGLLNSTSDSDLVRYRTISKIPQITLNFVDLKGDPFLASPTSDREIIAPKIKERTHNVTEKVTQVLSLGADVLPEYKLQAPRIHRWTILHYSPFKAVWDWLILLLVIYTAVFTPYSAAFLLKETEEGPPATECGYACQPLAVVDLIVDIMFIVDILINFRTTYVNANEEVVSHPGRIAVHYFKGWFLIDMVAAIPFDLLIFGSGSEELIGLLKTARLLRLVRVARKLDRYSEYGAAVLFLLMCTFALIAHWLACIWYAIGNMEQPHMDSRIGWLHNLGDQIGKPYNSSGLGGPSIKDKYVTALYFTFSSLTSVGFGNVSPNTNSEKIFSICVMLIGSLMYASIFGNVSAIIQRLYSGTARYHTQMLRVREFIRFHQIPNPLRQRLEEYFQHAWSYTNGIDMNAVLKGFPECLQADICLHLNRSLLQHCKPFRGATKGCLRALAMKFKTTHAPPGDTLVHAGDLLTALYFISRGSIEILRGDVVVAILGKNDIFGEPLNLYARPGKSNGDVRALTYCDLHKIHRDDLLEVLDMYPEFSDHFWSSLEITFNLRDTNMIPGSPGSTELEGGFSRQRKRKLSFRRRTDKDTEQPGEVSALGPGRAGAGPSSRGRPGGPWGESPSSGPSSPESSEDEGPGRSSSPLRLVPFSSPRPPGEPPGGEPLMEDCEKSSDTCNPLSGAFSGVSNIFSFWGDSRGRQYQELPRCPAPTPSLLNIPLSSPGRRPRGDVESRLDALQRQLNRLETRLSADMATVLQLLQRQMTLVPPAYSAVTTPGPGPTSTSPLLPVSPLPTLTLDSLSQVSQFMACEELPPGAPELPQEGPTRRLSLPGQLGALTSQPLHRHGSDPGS
row,Compound,"hERG current change (%, negative = inhibition) at 1uM"
1,O=C1NC(=O)C(CC(=O)N(Cc2ccco2)C2(C(=O)NC3CCCC3)CCCCC2)N1 (centres unmarked),13.8%
2,CCCCC(=O)NC(c1ccc([N+](=O)[O-])cc1)c1c(O)ccc2ccccc12 (centres unmarked),4.2%
3,COC(=O)COc1ccc(-c2nccc(-c3ccccn3)n2)cc1,9.24%
4,CCNC(=O)CC1SC(=Nc2ccc(C)c([N+](=O)[O-])c2)N(C)C1=O (centres unmarked),7.26%
5,Cc1nnc(SCc2ccc(F)cc2Cl)s1,-1.78%
6,Cl.N=c1ccn2c(n1)O[C@H]1[C@@H](CO)[C@H](O)O[C@H]12,10.1%
7,Cc1ccccc1NC(=O)C(NS(=O)(=O)c1ccc2c(c1)c(=O)n(C)c(=O)n2C)c1ccccc1 (centres unmarked),11.4%
8,O=C(Cn1cccc1C(=O)c1ccccc1)NCCN1CCCCCC1,-8.68%
9,O=C(COc1ccccc1F)N/N=C1\CCCc2ccccc21,15%
10,Cc1ccc(C(=O)N2CCN(S(=O)(=O)N3CCCCC3)CC2)cc1,11.8%
11,O=C(c1ccncc1)c1ccc(NS(=O)(=O)c2ccc(Br)s2)cc1,1.6%
12,Cc1ccc(S(=O)(=O)N2CCN(c3nc(CN4CCCC4)nc4sc(C)c(C)c34)CC2)cc1,-48.8%
13,O=C(O)c1ccccc1NCc1cccs1,12.4%
14,CCCCc1nnc(NC(=O)c2ccc3c(=O)n4c(nc3c2)CCC4)s1,9.85%
15,Cn1cccc1C(=O)NC(=O)COC(=O)CC12CC3CC(CC(Br)(C3)C1)C2,7.61%
16,Cn1c(=O)c2c(nc(CN3CCC(C(N)=O)CC3)n2Cc2c(Cl)cccc2Cl)n(C)c1=O,-1.28%
17,Cl.O=C(NCCN1CCCCC1)c1c(O)c2ccccc2[nH]c1=O,2.99%
18,CC(C)C(c1nnnn1CCc1ccccc1)N1CCOCC1 (centres unmarked),5.85%
19,Cc1ccc(C)c(NC(=O)CSc2nnc(CCCCCNC(=O)OC(C)(C)C)o2)c1,-14.6%
20,CC(=O)Nc1ccc(NC(=O)CC2CCCC2)cc1,13.6%
21,COc1ccc(Cl)cc1NC(=O)NCCN1CCNC1=O,5.75%
22,O=C(NCCn1cc(SCc2ccccc2)c2ccccc21)c1ccccc1F,16%

row,Compound,"hERG current change (%, negative = inhibition) at 1uM"
1,COc1ccc(S(=O)(=O)Cc2ccc(C(=O)NCc3cccs3)o2)cc1,-6.95%
2,CC(=O)Nc1ccc(NC(=O)CSc2nc3ccccc3nc2N2CCC(C)CC2)cc1,10.9%
3,CC(C)(C)c1ccc(OCCC(=O)OCC(=O)N2c3ccccc3NC(=O)C2(C)C)cc1,6.31%
4,CC(C)(C)OC(=O)NCCc1nnc(SCC(=O)Nc2ccc(Br)cc2)o1,4.83%
5,CCOC(=O)c1ccc(-n2c(CN3CCN(CCO)CC3)nc3ccc([N+](=O)[O-])cc3c2=O)cc1,7.31%
6,COc1ccc(CCNS(=O)(=O)c2ccc(Br)cc2)cc1,-1.33%
7,O=C(O)CCCn1cc(NC(=O)c2ccc(F)cc2)cn1,21.8%
8,Cn1cc(C=C2C(=O)NC(=O)NC2=O)c2ccccc21,13.4%
9,COn1c(SCC(=O)N(C)C)nc2ccccc2c1=O,6.45%
10,CCc1nnc(NC(=O)c2ccc(S(=O)(=O)N(CC(C)C)CC(C)C)cc2)o1,4.19%
11,CCOC(=O)N1CCN(C(=O)C(=O)NNC(=O)COc2ccc(Cl)c(C)c2)CC1,6.06%
12,COC(=O)c1cccc(NC(=O)C2COc3ccccc3O2)c1 (centres unmarked),14.8%
13,CCc1c(C(=O)NNC(=S)Nc2ccc(S(=O)(=O)Nc3ncccn3)cc2)csc1C,6.74%
14,CCN(CC(=O)Nc1cccc(OC)c1)C(=O)C1CCN(C(=O)Nc2ccccc2)CC1,17.3%
15,COc1cccc(/C=C/C(=O)OCC(=O)c2ccc3c(c2)NC(=O)CO3)c1,8.26%
16,CCOP(=O)(OCC)C(NC(=O)Cc1ccccc1)C(Cl)(Cl)Cl (centres unmarked),14.8%
17,O=C(NNc1cccc(Cl)n1)c1cccnc1Cl,14.1%
18,Cc1ccc(OC(C)C(=O)Nc2cc(C)on2)cc1 (centres unmarked),6.11%
19,COc1ccc(OC)c(NC(=O)c2sc3nc(Cc4ccccc4)cc(C(F)(F)F)c3c2N)c1,15%
20,Cc1ccc(N2C(=O)N(CC(=O)Nc3ccc([N+](=O)[O-])cc3)C(=O)C2C)cc1 (centres unmarked),8.15%
21,O=C(CN1CCC(n2nnc3cc(C(F)(F)F)ccc32)CC1)NNC(=O)c1ccco1,-4.93%
22,CCOc1ccc(C(=O)OCC(=O)NCCNC(=O)COC(=O)c2ccc(OCC)cc2)cc1,8.24%
